# In article PMC12820563:
# Some of the results follow. The list includes weakly bound sequences.
# Biological target: T1, MBP-FoxP3dN (UniProt Q99JB6)
# T1 sequence: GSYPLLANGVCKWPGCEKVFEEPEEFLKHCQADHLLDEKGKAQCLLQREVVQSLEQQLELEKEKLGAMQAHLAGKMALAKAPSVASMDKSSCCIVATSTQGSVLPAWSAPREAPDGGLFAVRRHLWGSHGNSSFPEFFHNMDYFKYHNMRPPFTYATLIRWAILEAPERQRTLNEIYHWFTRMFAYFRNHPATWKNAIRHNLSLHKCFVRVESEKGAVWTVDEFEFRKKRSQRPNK
# Experiment: PD-seq (MBP pull-down with sequencing)
# Details: 20 mM Tris-HCl pH 7.5, 100 mM NaCl, 1.5 mM MgCl2, 0.4 uM protein, 0.1 uM dsDNA library, 30 min, room temperature, amylose pull-down; high values mean tight binding; double strand, one strand shown
row,Sequence,binding signal (RPM ratio (pull-down/input))
1,GATGATTGTTCTCCCAGCTGATGAATTCCCACGTTCGAGTAAACAAATTTTCCTAATCTTTCTGTTCAAGCGCCATCTAC,0.282
2,GATGATTGTTCTCCCAGCTGATGAATTGTTCCCCTCGAGTAAACAAATTTTCCTAATCTTTCTGTTCAAGCGCCATCTAC,0.362
3,GATGATTGTTCTCCCAGCTGATGAATTGGAATGTTCGAGTAAACAAATTTTCCTAATCTTTCTGTTCAAGCGCCATCTAC,0.569
4,GATGATTGTTCTCCCAGCTGATGAATTGCCCGGATCGAGTAAACAAATTTTCCTAATCTTTCTGTTCAAGCGCCATCTAC,0.298
5,GATGATTGTTCTCCCAGCTGATGAATTCCGCTGCTCGAGTAAACAAATTTTCCTAATCTTTCTGTTCAAGCGCCATCTAC,0.62
6,GATGATTGTTCTCCCAGCTGATGAATTGTATGTTTCGAGTAAACAAATTTTCCTAATCTTTCTGTTCAAGCGCCATCTAC,3.89
7,GATGATTGTTCTCCCAGCTGATGAATTGAAGTACTCGAGTAAACAAATTTTCCTAATCTTTCTGTTCAAGCGCCATCTAC,0.422
8,GATGATTGTTCTCCCAGCTGATGAATTGGCCAAATCGAGTAAACAAATTTTCCTAATCTTTCTGTTCAAGCGCCATCTAC,0.278
9,GATGATTGTTCTCCCAGCTGATGAATTGGACATTTCGAGTAAACAAATTTTCCTAATCTTTCTGTTCAAGCGCCATCTAC,0.483
10,GATGATTGTTCTCCCAGCTGATGAATTGGGACCATCGAGTAAACAAATTTTCCTAATCTTTCTGTTCAAGCGCCATCTAC,0.5
11,GATGATTGTTCTCCCAGCTGATGAATTCCAGCTTTCGAGTAAACAAATTTTCCTAATCTTTCTGTTCAAGCGCCATCTAC,0.831
12,GATGATTGTTCTCCCAGCTGATGAATTTCGAGCCTCGAGTAAACAAATTTTCCTAATCTTTCTGTTCAAGCGCCATCTAC,0.476
13,GATGATTGTTCTCCCAGCTGATGAATTTATCCACTCGAGTAAACAAATTTTCCTAATCTTTCTGTTCAAGCGCCATCTAC,0.635
14,GATGATTGTTCTCCCAGCTGATGAATTTCCATAATCGAGTAAACAAATTTTCCTAATCTTTCTGTTCAAGCGCCATCTAC,0.332
15,GATGATTGTTCTCCCAGCTGATGAATTCTAGGAGTCGAGTAAACAAATTTTCCTAATCTTTCTGTTCAAGCGCCATCTAC,0.233
16,GATGATTGTTCTCCCAGCTGATGAATTGGAGTTCTCGAGTAAACAAATTTTCCTAATCTTTCTGTTCAAGCGCCATCTAC,0.548
17,GATGATTGTTCTCCCAGCTGATGAATTCGGGGGGTCGAGTAAACAAATTTTCCTAATCTTTCTGTTCAAGCGCCATCTAC,0.886
18,GATGATTGTTCTCCCAGCTGATGAATTTAATCGTTCGAGTAAACAAATTTTCCTAATCTTTCTGTTCAAGCGCCATCTAC,0.599
19,GATGATTGTTCTCCCAGCTGATGAATTAATCAACTCGAGTAAACAAATTTTCCTAATCTTTCTGTTCAAGCGCCATCTAC,0.446
20,GATGATTGTTCTCCCAGCTGATGAATTACACGTCTCGAGTAAACAAATTTTCCTAATCTTTCTGTTCAAGCGCCATCTAC,0.646
21,GATGATTGTTCTCCCAGCTGATGAATTAACCAGATCGAGTAAACAAATTTTCCTAATCTTTCTGTTCAAGCGCCATCTAC,0.176

row,Sequence,binding signal (RPM ratio (pull-down/input))
1,GATGATTGTTCTCCCAGCTGATGAATTAACTGGATCGAGTAAACAAATTTTCCTAATCTTTCTGTTCAAGCGCCATCTAC,0.191
2,GATGATTGTTCTCCCAGCTGATGAATTTGTGGGTTCGAGTAAACAAATTTTCCTAATCTTTCTGTTCAAGCGCCATCTAC,3.87
3,GATGATTGTTCTCCCAGCTGATGAATTCGGTCCGTCGAGTAAACAAATTTTCCTAATCTTTCTGTTCAAGCGCCATCTAC,0.258
4,GATGATTGTTCTCCCAGCTGATGAATTATGACTGTCGAGTAAACAAATTTTCCTAATCTTTCTGTTCAAGCGCCATCTAC,1.1
5,GATGATTGTTCTCCCAGCTGATGAATTAGAGAGTTCGAGTAAACAAATTTTCCTAATCTTTCTGTTCAAGCGCCATCTAC,0.399
6,GATGATTGTTCTCCCAGCTGATGAATTTCGCGGCTCGAGTAAACAAATTTTCCTAATCTTTCTGTTCAAGCGCCATCTAC,0.658
7,GATGATTGTTCTCCCAGCTGATGAATTGTTGGCATCGAGTAAACAAATTTTCCTAATCTTTCTGTTCAAGCGCCATCTAC,2.52
8,GATGATTGTTCTCCCAGCTGATGAATTTTTATAGTCGAGTAAACAAATTTTCCTAATCTTTCTGTTCAAGCGCCATCTAC,0.288
9,GATGATTGTTCTCCCAGCTGATGAATTACTGGCTTCGAGTAAACAAATTTTCCTAATCTTTCTGTTCAAGCGCCATCTAC,0.325
10,GATGATTGTTCTCCCAGCTGATGAATTAAGCCCCTCGAGTAAACAAATTTTCCTAATCTTTCTGTTCAAGCGCCATCTAC,1.09
11,GATGATTGTTCTCCCAGCTGATGAATTATCCTAGTCGAGTAAACAAATTTTCCTAATCTTTCTGTTCAAGCGCCATCTAC,0.24
12,GATGATTGTTCTCCCAGCTGATGAATTTGTTTAATCGAGTAAACAAATTTTCCTAATCTTTCTGTTCAAGCGCCATCTAC,5.42
13,GATGATTGTTCTCCCAGCTGATGAATTTCATAGATCGAGTAAACAAATTTTCCTAATCTTTCTGTTCAAGCGCCATCTAC,0.278
14,GATGATTGTTCTCCCAGCTGATGAATTTAATGCATCGAGTAAACAAATTTTCCTAATCTTTCTGTTCAAGCGCCATCTAC,1.99
15,GATGATTGTTCTCCCAGCTGATGAATTCACGTCCTCGAGTAAACAAATTTTCCTAATCTTTCTGTTCAAGCGCCATCTAC,0.353
16,GATGATTGTTCTCCCAGCTGATGAATTAAGGGATTCGAGTAAACAAATTTTCCTAATCTTTCTGTTCAAGCGCCATCTAC,0.4
17,GATGATTGTTCTCCCAGCTGATGAATTGACACATTCGAGTAAACAAATTTTCCTAATCTTTCTGTTCAAGCGCCATCTAC,0.772
18,GATGATTGTTCTCCCAGCTGATGAATTTTTCCGATCGAGTAAACAAATTTTCCTAATCTTTCTGTTCAAGCGCCATCTAC,0.192
19,GATGATTGTTCTCCCAGCTGATGAATTATAATGGTCGAGTAAACAAATTTTCCTAATCTTTCTGTTCAAGCGCCATCTAC,0.57
20,GATGATTGTTCTCCCAGCTGATGAATTGAGAAAGTCGAGTAAACAAATTTTCCTAATCTTTCTGTTCAAGCGCCATCTAC,0.178
21,GATGATTGTTCTCCCAGCTGATGAATTTCGAATATCGAGTAAACAAATTTTCCTAATCTTTCTGTTCAAGCGCCATCTAC,0.521

row,Sequence,binding signal (RPM ratio (pull-down/input))
1,GATGATTGTTCTCCCAGCTGATGAATTAGTCAAGTCGAGTAAACAAATTTTCCTAATCTTTCTGTTCAAGCGCCATCTAC,0.297
2,GATGATTGTTCTCCCAGCTGATGAATTAAACGTCTCGAGTAAACAAATTTTCCTAATCTTTCTGTTCAAGCGCCATCTAC,0.427
3,GATGATTGTTCTCCCAGCTGATGAATTTAGATACTCGAGTAAACAAATTTTCCTAATCTTTCTGTTCAAGCGCCATCTAC,1.25
4,GATGATTGTTCTCCCAGCTGATGAATTTGACCTTTCGAGTAAACAAATTTTCCTAATCTTTCTGTTCAAGCGCCATCTAC,0.418
5,GATGATTGTTCTCCCAGCTGATGAATTCGGACGGTCGAGTAAACAAATTTTCCTAATCTTTCTGTTCAAGCGCCATCTAC,0.201
6,GATGATTGTTCTCCCAGCTGATGAATTAGTCCACTCGAGTAAACAAATTTTCCTAATCTTTCTGTTCAAGCGCCATCTAC,0.53
7,GATGATTGTTCTCCCAGCTGATGAATTTATTAAGTCGAGTAAACAAATTTTCCTAATCTTTCTGTTCAAGCGCCATCTAC,0.705
8,GATGATTGTTCTCCCAGCTGATGAATTTCATAATTCGAGTAAACAAATTTTCCTAATCTTTCTGTTCAAGCGCCATCTAC,0.324
9,GATGATTGTTCTCCCAGCTGATGAATTAGTTTCATCGAGTAAACAAATTTTCCTAATCTTTCTGTTCAAGCGCCATCTAC,1.56
10,GATGATTGTTCTCCCAGCTGATGAATTGGTACCATCGAGTAAACAAATTTTCCTAATCTTTCTGTTCAAGCGCCATCTAC,0.697
11,GATGATTGTTCTCCCAGCTGATGAATTGAGAGATTCGAGTAAACAAATTTTCCTAATCTTTCTGTTCAAGCGCCATCTAC,0.386
12,GATGATTGTTCTCCCAGCTGATGAATTGTCTAATTCGAGTAAACAAATTTTCCTAATCTTTCTGTTCAAGCGCCATCTAC,0.542
13,GATGATTGTTCTCCCAGCTGATGAATTCAGGGAGTCGAGTAAACAAATTTTCCTAATCTTTCTGTTCAAGCGCCATCTAC,0.296
14,GATGATTGTTCTCCCAGCTGATGAATTAGAAGAGTCGAGTAAACAAATTTTCCTAATCTTTCTGTTCAAGCGCCATCTAC,0.214
15,GATGATTGTTCTCCCAGCTGATGAATTTAAGACATCGAGTAAACAAATTTTCCTAATCTTTCTGTTCAAGCGCCATCTAC,0.436
16,GATGATTGTTCTCCCAGCTGATGAATTGGCCTCATCGAGTAAACAAATTTTCCTAATCTTTCTGTTCAAGCGCCATCTAC,0.746
17,GATGATTGTTCTCCCAGCTGATGAATTCAGCCCGTCGAGTAAACAAATTTTCCTAATCTTTCTGTTCAAGCGCCATCTAC,1.19
18,GATGATTGTTCTCCCAGCTGATGAATTAAATACTTCGAGTAAACAAATTTTCCTAATCTTTCTGTTCAAGCGCCATCTAC,0.469
19,GATGATTGTTCTCCCAGCTGATGAATTTGAGTTATCGAGTAAACAAATTTTCCTAATCTTTCTGTTCAAGCGCCATCTAC,0.953
20,GATGATTGTTCTCCCAGCTGATGAATTCATTTGCTCGAGTAAACAAATTTTCCTAATCTTTCTGTTCAAGCGCCATCTAC,2.92
21,GATGATTGTTCTCCCAGCTGATGAATTAAATCTATCGAGTAAACAAATTTTCCTAATCTTTCTGTTCAAGCGCCATCTAC,0.327
